Assay results taken from the supplement of paper PMC9046079.
Counter-ions that a name gives are not always drawn. ± gives the standard deviation of the averaged measurements. This is one part of the list.

tested on: murine small intestinal organoids (ENR+CD Paneth differentiation); assay: cellular ATP (CellTiter-Glo 3D) relative to plate median (log10 fold change); higher = more viable cells; conditions: 2 µM; 6 d
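Note: 2.5D pseudo-monolayer culture of ISC-enriched organoids partly embedded atop Matrigel, compound added on day 0 and again on day 3, per-plate LOESS correction before median fold change.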

Structure (SMILES)	cellular ATP (log10)
COc1ccc(C(=O)N2CCCC2=O)cc1 [Aniracetam]	0.0545 ± 0.16
C[C@](O)(COc1ccc(C#N)cc1)C(=O)Nc1ccc(C#N)c(C(F)(F)F)c1	-0.0878 ± 0.28
Cc1cc(SCc2sc(-c3ccc(C(F)(F)F)c(F)c3)nc2C)ccc1OCC(=O)O	-0.249 ± 0.18
O=C(O)CNC(=O)c1c(O)c2ccccc2n(Cc2ccccc2)c1=O	0.097 ± 0.17
C[C@@H]1O[C@@H](O[C@H]2C[C@@H](O)[C@]3(CO)[C@H]4[C@H](O)C[C@]5(C)[C@@H](C6=CC(=O)OC6)CC[C@]5(O)[C@@H]4CC[C@]3(O)C2)[C@H](O)[C@H](O)[C@H]1O [Ouabain]	0.0795 ± 0.21
CCc1c(C(=O)C(N)=O)c2c(OCC(=O)O)cccc2n1Cc1ccccc1	0.166 ± 0.2
CCC(COC(=O)c1cc(OC)c(OC)c(OC)c1)(c1ccccc1)N(C)C (stereo not drawn) [Trimebutine]	-0.63 ± 0.65
CN1CCc2cc3c(cc2C1C1OC(=O)c2c1ccc1c2OCO1)OCO3 (single isomer, unassigned; (+)) [(+)-Bicuculline]	-0.166 ± 0.52
Fc1cc(F)c2c(c1)[C@H]1C=CC[C@H]1C(c1cccnc1)N2 (stereo partly drawn) [Golgicide A]	0.339 ± 0.26
Cn1cc(C2=C(c3cn(C4CCN(Cc5ccccn5)CC4)c4ccccc34)C(=O)NC2=O)c2ccccc21	0.251 ± 0.087
CCN(CC)C(=O)c1ccc(C2=CC3(CCNCC3)Oc3cccc(O)c32)cc1	0.291 ± 0.17
Cc1sc2c(c1C)C(c1ccc(Cl)cc1)=N[C@@H](CC(=O)OC(C)(C)C)c1nnc(C)n1-2	-1.01 ± 0.083
COc1cc(-n2c(=S)[nH]c3ccccc3c2=O)c(Cl)cc1Cl [Mdivi-1]	-0.112 ± 0.13
O=c1[nH]c2ccc(Cl)cc2c(N[C@@H]2CN3CCC2CC3)c1-c1nc2ccccc2[nH]1	-0.861 ± 0.2
CCCN1CCO[C@@H]2c3cc(O)ccc3OC[C@H]21	0.273 ± 0.11
N[C@@H]1C[C@H]1c1ccccc1 [Tranylcypromine (2-PCPA) HCl]	-0.00732 ± 0.31
CCOC(=O)c1cncn1[C@H](C)c1ccccc1 [Etomidate]	0.163 ± 0.19
CC[C@@H]1/C=C/C=C/C[C@H](C)[C@H](O)[C@](C)(O)C(=O)[C@H](C)[C@@H](O)[C@H](C)C(=O)[C@H](C)[C@@H](O)[C@H](C)/C=C/C(=O)O[C@H]2[C@@H](C)[C@@H](CC1)O[C@@]1(CC[C@@H](C)[C@@H](C[C@H](C)O)O1)[C@@H]2C [Oligomycin A]	-0.946 ± 0.55
Cc1ccc(-n2nccn2)c(C(=O)N2CCN(c3nc4cc(Cl)ccc4o3)CC[C@H]2C)c1 [Suvorexant (MK-4305)]	0.318 ± 0.31
CN1CCCCC1Cn1cc(C(=O)c2cc([N+](=O)[O-])ccc2I)c2ccccc21 (stereo not drawn)	-0.0616 ± 0.06
Cc1sc2c(c1C)C(c1ccc(Cl)cc1)=N[C@@H](CC(=O)Nc1ccc(O)cc1)c1nnc(C)n1-2	-0.686 ± 0.092
O=C(O[C@H]1C[C@H]2CC[C@@H](C1)[N+]21CCCC1)C(O)(c1ccccc1)c1ccccc1 [Trospium chloride]	0.23 ± 0.09
C=C1C[C@@H]2[C@H](CC[C@]3(C)C(=O)CC[C@@H]23)[C@@]2(C)C=CC(=O)C=C12 [Exemestane]	0.17 ± 0.25
C[C@@]12N[C@@H](Cc3ccccc31)c1ccccc12 [(-)-MK 801 Maleate]	-0.702 ± 0.46
O=[N+]([O-])/C=C/c1ccc2c(c1)OCO2 [MNS (3,4-Methylenedioxy-Œ≤-nitrostyrene, MDBN)]	0.062 ± 0.21
CC(=O)O[C@H]1C[C@@H]2CC[C@@H]3[C@H](CC[C@@]4(C)[C@H]3C[C@H]([N+]3(C)CCCCC3)[C@@H]4OC(C)=O)[C@@]2(C)C[C@@H]1[N+]1(C)CCCCC1 [Pancuronium dibromide]	-0.0122 ± 0.22
CCOc1ccccc1-n1c(C(C)N2CCN(C(=O)COc3ccc(Cl)cc3)CC2)nc2ccccc2c1=O (stereo not drawn) [Erastin]	0.38 ± 0.15
Cc1cc2c(C(C)C)c(O)c(O)c(C=O)c2c(O)c1-c1c(C)cc2c(C(C)C)c(O)c(O)c(C=O)c2c1O	-0.216 ± 0.19
